From the RNAGym collection of RNA variant scans (doi:10.1073/pnas.2313332121)
Variants at the background level are over-represented here.

B1: TPR 5TU (parent)
chain: GGAUCUUCUCGAUCUAACAAAAAAGACAAAUCUGCCACAAAGCUUGAGAGCAUCUUCGGAUGCAGAGGCGGCAGCCUUCGGUGGCGCGAUAGCGCCAACGUUCUCAACUAUGACACGCAAAACGCGUGCUCCGUUGAAUGGAGUUUAUCAUG

Variants of: B1
Experiment: polymerase ribozyme fitness, log enrichment relative to wild type (log ratio); higher = more active; in vitro selection for triplet polymerase activity
How it was run: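 Libraries of mutants in each subunit of a heterodimeric triplet polymerase ribozyme were generated by PCR and transcribed. In triplicate, each went through one in vitro selection round: annealing with biotinylated primer, partner subunit and triplets; frozen incubation at −7 °C; gel excision of extended constructs; streptavidin-bead capture; RT-PCR. Fitness, taken from Illumina sequencing of input and output libraries, is the logarithm of a genotype's enrichment over wild-type enrichment, averaged across replicates with inverse-variance weights. The logarithm is base 2, and genotypes needed ≥10 input reads and ≥1 read per output to be kept.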

| Variant | polymerase ribozyme fitness (log ratio) |
| --- | --- |
| GGAUCUUCUCGAUCUAACAAAAAAGACAAAUCUGCCACAAAGCUUGAGAGCAUUUUCGGAUGCAGAGGCGGCAGCCUUCGGUGGCGCGAUAGCACCAACGUUCUCAACUAUGACACGCAAAACGCGUGCUCCGUUGAAUGGAGUUUAUCAUG [C54U G94A] | -0.351 |
| GGAUCUUCUCGAUCUAACAAAAAAGACAAAUCUGCCACAAAGCUUGAGAGCAUUUUCGGAUGCAGAGGCGGCAGCCUUCGGUGGCGCGAUAGCCCCAACGUUCUCAACUAUGACACGCAAAACGCGUGCUCCGUUGAAUGGAGUUUAUCAUG [C54U G94C] | -1.15 |
| GGAUCUUCUCGAUCUAACAAAAAAGACAAAUCUGCCACAAAGCUUGAGAGCAUUUUCGGAUGCAGAGGCGGCAGCCUUCGGUGGCGCGAUAGCGCCAACGUUCUCAACUAUGACACGCAAAACGCGUGCUCCGUUGAAUGAAGUUUAUCAGG [C54U G141A U151G] | ≤ -4.2 |
| GGAUCUUCUCGAUCUAACAAAAAAGACAAAUCUGCCACAAAGCUUGAGAGCAUUAUCGGAUGCAGAGGCGGCAGGCUUCGGUGGCACGAUAGCGCCGACGUUCUCAACUAUGACACGCAAAACGCGUGCUCCGUUGAAUGGAGUUUAUCAUG [C54U U55A C75G G86A A97G] | ≤ -4.2 |
| GGAUCUUCUCGAUCUAACAAAAAAGACAAAUCUGCCACAAAGCUUGAGAGCAUUAUCGGAUGCAGAGGCGGCAGCCUUGGGUGGCGCGAUAGUGCCAGCGUUCUCAACUAUGACAGGCAAAUCGCGUGCUCCGUUGAAUGGAGUUUAUCAUG [C54U U55A C79G C93U A98G C116G A122U] | ≤ -4.2 |
| GGAUCUUCUCGAUCUAACAAAAAAGACAAAUCUGCCACAAAGCUUGAGAGCAUUGUCGGAUGCAGAGGCGGCAGCCUUCGGUGACGCGUGAGCGCCUACGUUCUCAACUAUGACACGCAAAACGCGUGCUCCGUUGAAUGGAGUUUUUCACG [C54U U55G G84A A89U U90G A97U A147U U151C] | ≤ -4.2 |
| GGAUCUUCUCGAUCUAACAAAAAAGACAAAUCUGCCACAAAGCUUGAGAGCAUUUUCGGAAGCAGAGGCGGCAGCCUUCGGUGUCGCGAUAGCGCCAACGUUCUCAAGUAUGACACGCAAAACGCGUGCUCCGUUGAAUUGAGUUUAUCAUG [C54U U61A G84U C108G G140U] | ≤ -4.2 |
| GGAUCUUCUCGAUCUAACAAAAAAGACAAAUCUGCCACAAAGCUUGAGAGCAUUUUCGGAUGCAGAGGCGGCAGCCCUCGGUGGCGCGAUAGCGCCAGAGCUCUCAACUAUGACACGAAAAACGCGUGCUCCGUUGAAUGGCGUUUAUGAUG [C54U U77C A98G C99A U101C C118A A142C C149G] | ≤ -4.2 |
| GGAUCUUCUCGAUCUAACAAAAAAGACAAAUCUGCCACAAAGCUUGAGAGCAUUUUCGGAUGCAGAGGCGGCAGCCUACGGUGGCUCGAUAGCGCCAACGUUCCAAACUAUGACACGCAAAACGCGUGCGCAGUUAAAUGGAGUUUAUCAUG [C54U U78A G86U U104C C105A U130G C132A G136A] | ≤ -4.2 |
| GGAUCUUCUCGAUCUAACAAAAAAGACAAAUCUGCCACAAAGCUUGAGAGCAUUUUCGGAUGCAGAGGCGGCAGCCUACGGUGGCGCGACAACGCCAACGUUCUCAACUAUGACACGCAAAACGCGUGCUCCCUUGAAUGGAGUUUAUCAUG [C54U U78A U90C G92A G133C] | ≤ -4.2 |
| GGAUCUUCUCGAUCUAACAAAAAAGACAAAUCUGCCACAAAGCUUGAGAGCAUUUUCGGAUGCAGAGGCGGCAGCCUUCGGUGGCGCGAUAGCGCCAACGUGCUCAACUAUGACACGCAAAACGCGUGCUCCGUUGAAUGGAGAUUAUCUUG [C54U U102G U144A A150U] | ≤ -4.2 |
| GGAUCUUCUCGAUCUAACAAAAAAGACAAAUCUGCCACAAAGCUUGAGAGCAUUUUCGGAUGCAGAGGCGGCAGCCUUCGGUGGCGCGAUAGCGCCAACGUUCUCAACUAUGACACGCAAAACGCGUGCUCCGUUGAAUGGAGUUUAACAUG [C54U U148A] | -3.74 |
| GGAUCUUCUCGAUCUAACAAAAAAGACAAAUCUGCCACAAAGCUUGAGAGCAUCAUCGGCUGCAGAGGCGGCAGCCUUCGGUGGCGCGAUAGCGCCAACGUUCUCAACUAUGACACGCAAAACGCGUGCUCCGUUGAAUGGAGUUUAUCAUG [U55A A60C] | -4.18 |
| GGAUCUUCUCGAUCUAACAAAAAAGACAAAUCUGCCACAAAGCUUGAGAGCAUCAUCGGCAGCAGAGGCGGCAGCCUUCCGUGGCGCGAUAGCGCCAACGUUCUCAACUAUGACACGCAAAACGCGUGCUCCGUUGAAUGGAGUUUAUCAUG [U55A A60C U61A G80C] | ≤ -4.2 |
| GGAUCUUCUCGAUCUAACAAAAAAGACAAAUCUGCCACAAAGCUUGAGAGCAUCAUCGGGUGCAGAGGCGGCAGCCUUCGGUGGCGCGAUAGCGCCAACGUUCUCAACUAUGACACGCAAAACGCGUGCUCCGUUGCAUGGAGUUUAUCAUG [U55A A60G A137C] | -3 |
| GGAUCUUCUCGAUCUAACAAAAAAGACAAAUCUGCCACAAAGCUUGAGAGCAUCAUCGGUUGCAGAGGCGGCAGCCUUCGGUGGCGCGAUAGCGCCAACGUUCUCAACUAUGACACGGCAAACGCGUGCUCCGUUGAAUGGAGUUUAUCAUG [U55A A60U C118G A119C] | -0.427 |
| GGAUCUUCUCGAUCUAACAAAAAAGACAAAUCUGCCACAAAGCUUGAGAGCAUCAUCGGAUGCCGAGGCGGCAGCCUUCGGUGGCGCGAAAGCGCCAACGUUCUCAACUAUGUCACGCAAAACGCGUGCUCCGUUGAAUGGAGUUUCUCAUG [U55A A64C U90A A113U A147C] | ≤ -4.2 |
| GGAUCUUCUCGAUCUAACAAAAAAGACAAAUCUGCCACAAAGCUUGAGAGCAUCAUCGGAUGCAGGGGCGGCAGCCUUCGGUGGCGCGAUAUCGCCAACGUUCUCAACUAUGACACGCCAAACGCGUGCUCCGUUGAAUGGAGUUUAUCAUG [U55A A66G G92U A119C] | ≤ -4.2 |
| GGAUCUUCUCGAUCUAACAAAAAAGACAAAUCUGCCACAAAGCUUGAGAGCAUCAUCGGAUGCAGAGGCGGCAGCCUUCGGUGGCGCGAUUGCGCAAACGUUCUCAACUAUGACACGCAAAACGGGUGCUCCGUUGAAUGGGGUUUAUCAUG [U55A A91U C96A C125G A142G] | ≤ -4.2 |
